For assay [1], the target named is T1, Human CD3 on Jurkat cells (human, UniProt P07766; P09693; P04234).
T1 construct: whole, on cells; also called Human CD3-expressing Jurkat cells; Jurkat (naturally expressing human CD3)
Description: flow cytometry on Jurkat cells. For orientation: In flow cytometry, cells or beads pass a laser one at a time.

The target in assay [2] is T2, human MSLN recombinant antigen (acrobiosystems, Cat. No. MSN-H8223) (human, UniProt Q13421 296-580).
T2 construct: Bought protein
T2 sequence (Q13421 other isoform, or with tags, fused parts or gaps limits assumed): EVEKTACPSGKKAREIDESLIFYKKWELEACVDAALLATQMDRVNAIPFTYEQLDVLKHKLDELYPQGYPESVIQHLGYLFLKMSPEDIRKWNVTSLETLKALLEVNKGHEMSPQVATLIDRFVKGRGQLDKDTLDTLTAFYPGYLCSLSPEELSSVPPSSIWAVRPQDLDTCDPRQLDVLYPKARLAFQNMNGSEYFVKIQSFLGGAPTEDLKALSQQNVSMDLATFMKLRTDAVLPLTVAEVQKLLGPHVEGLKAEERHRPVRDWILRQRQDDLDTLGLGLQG
Description: SPR chip (Carterra), antibody captured, MSLN in flow.

In assay [3] the target is T3, Human CD3εγ recombinant antigen (acrobiosystems, Cat. No. CDG-H52W5) (human, UniProt P07766 23-126; P09693 23-116).
T3 construct: Bought recombinant protein
Kind of assay: SPR chip (Carterra), antibody captured, antigen in flow.

Assay [4] deals with T4, Monkey CD3 on cynomolgus HSC-F cells (cynomolgus monkey, UniProt Q95LI5 22-198; Q95LI7 23-181; Q95LI8 22-171).
T4 construct: whole, on cells; also called Monkey CD3-expressing cynomolgus HSC-F cells; cynomolgus monkey CD3-expressing HSC-F cells
T4 sequence (Q95LI5 22-198, chain 1 of 3): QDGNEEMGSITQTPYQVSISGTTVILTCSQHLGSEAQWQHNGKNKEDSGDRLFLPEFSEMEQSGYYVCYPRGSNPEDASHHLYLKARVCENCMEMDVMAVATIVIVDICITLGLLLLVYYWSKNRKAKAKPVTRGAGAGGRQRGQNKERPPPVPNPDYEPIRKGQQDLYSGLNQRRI
T4 sequence (Q95LI7 23-181, chain 2 of 3, further chain): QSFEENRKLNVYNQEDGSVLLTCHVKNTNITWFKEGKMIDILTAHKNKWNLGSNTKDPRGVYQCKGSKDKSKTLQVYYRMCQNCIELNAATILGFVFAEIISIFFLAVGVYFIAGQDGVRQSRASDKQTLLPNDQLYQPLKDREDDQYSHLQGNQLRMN
T4 sequence (Q95LI8 22-171, chain 3 of 3, further chain): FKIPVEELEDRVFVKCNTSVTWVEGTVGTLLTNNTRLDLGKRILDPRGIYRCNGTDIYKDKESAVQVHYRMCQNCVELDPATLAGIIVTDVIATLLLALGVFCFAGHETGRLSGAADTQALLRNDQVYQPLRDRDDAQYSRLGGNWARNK
Description: flow cytometry on HSC-F cells.

B1: CD3-MSLN bispecific antibody B1 (bispecific antibody, human IgG1, lambda)
heavy: EVQLVESGGGLVQPGGSLRLSCAASGFTFNTYAMNWVRQAPGKGLEWVARIRSKYNNYATYYADSVKGRFTISRDDSKSILYLQMNNLKTEDTAMYYCVRHANFLNSYVSWFAYWGQGTLVTVSSASTKGPSVFPLAPSSKSTSGGTAALGCLVKDYFPEPVTVSWNSGALTSGVHTFPAVLQSSGLYSLSSVVTVPSSSLGTQTYICNVNHKPSNTKVDKKV[letters of human IgG1 Fc with changes omitted]GGGGSGGGGSEVQLVESGGGLVQAGESLRLSCAVSGNIGSIRHMGWHRQDPGKERELVATITTVGTTYYANFVKGRFTISRDNAKNTVYLQMNSLKPEDTGVYYCRATAHPTDYWGQGTQVTVSS
light: [letters of about 100 residues omitted][letters of about 100 residues omitted]
notes: [VH1]-[CH]-[L]-[3C6 VHH] with [VL-1]-[CL]
The term EC50 denotes the concentration needed to bring the measured effect to its halfway point. By Kd is commonly meant the concentration at which binding is half-saturated. One may read the koff as a measure of how fast the partners let go of each other. The kon is the rate constant with which the complex forms. With B1, the EC50 in assay [1] was determined as 0.568 nM. Also, in assay [2], the Kd was 0.7 nM, the koff was 0.00077 s⁻¹ and the kon worked out at 1.1e+06 M⁻¹ s⁻¹. Further, in assay [3], the dissociation constant Kd is 2 nM, the koff was determined as 0.0042 s⁻¹ and the kon was found to be 2.1e+06 M⁻¹ s⁻¹. Besides, it took 0.209 nM to reach a half-maximal effect in assay [4] (EC50).

The values are drawn from patent US20250059278A1 (SICHUAN HUIYU PHARMACEUTICAL, published 2025).
